# Experimental data as given in the supplement of paper PMC4967469.
# Lines with a small IC50 respond at low doses; a fit beyond the top or the lowest dose is shown as a bound at that dose. AUC is the area under the same curve over the 256-fold range up to the top dose, as a fraction: 1 means no effect, lower means more sensitive. For part of these data: Any top dose called inferred was calculated from the reported fits.
# Key:
# Dabrafenib = compound: CC(C)(C)c1nc(-c2cccc(NS(=O)(=O)c3c(F)cccc3F)c2F)c(-c2ccnc(N)n2)s1 [Dabrafenib]; assay: Viability of human cancer cell lines after 72 h of drug (GDSC screen); details: top dose 10 µM
# Description: (§1)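 Human cancer cell lines in 384-well plates, medium with 10% serum, drug for 72 h over a 256-fold dose range (nine 2-fold or five 4-fold steps up to the top dose). Adherent lines were fixed and stained with the nucleic acid dye Syto60, suspension lines read with resazurin; signal relative to control wells, capped at 0 and 100%. One two-parameter sigmoid per drug and line, fitted in a mixed model over all curves with the slope shared within a line.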
# SN-38 = compound: CCc1c2c(nc3ccc(O)cc13)-c1cc3c(c(=O)n1C2)COC(=O)[C@]3(O)CC [SN-38]; assay: as above; details: top dose 0.05 µM; top dose inferred
# Description: as §1
Cell Line,AUC (Dabrafenib),IC50 (Dabrafenib) [nM],AUC (SN-38),IC50 (SN-38) [nM]
"PANC-10-05 (pancreas, adherent)",0.958,> 10000,0.755,21.5
"NCI-H1793 (lung adenocarcinoma, adherent)",0.978,> 10000,0.915,> 50
"CAMA-1 (breast, adherent)",0.979,> 10000,0.906,> 50
"ML-1 (thyroid, adherent)",0.917,> 10000,0.726,15.6
"HLE (liver, adherent)",0.986,> 10000,0.559,4.49
"ME-180 (cervix, adherent)",0.945,> 10000,0.421,1.88
"KALS-1 (glioma, adherent)",0.96,> 10000,0.77,26.4
"GCT (soft tissue, adherent)",0.761,3330,0.374,1.44
"COR-L105 (lung adenocarcinoma, adherent)",0.974,> 10000,0.902,> 50
"MV-4-11 (leukaemia, suspension)",0.8,3880,0.379,1.55
"Hs-578-T (breast, adherent)",0.986,> 10000,0.841,37.9
"MFE-319 (endometrium, adherent)",0.984,> 10000,0.903,> 50
"BHY (head and neck, adherent)",0.979,> 10000,0.529,3.74
"GAMG (glioma, adherent)",0.956,> 10000,0.645,8.04
"SU-DHL-10 (B-cell lymphoma, suspension)",0.998,> 10000,0.834,20.4
"H-EMC-SS (chondrosarcoma, adherent)",0.811,7330,0.828,43.8
"HTC-C3 (thyroid, adherent)",0.183,60.6,0.859,49.7
"NCI-H1299 (large cell lung carcinoma, adherent)",0.823,7740,0.79,28.1
"SW156 (kidney, adherent)",0.887,> 10000,0.748,17.7
"KYSE-270 (oesophagus, adherent)",0.99,> 10000,0.49,2.95
"SN12C (kidney, adherent)",0.87,> 10000,0.582,5.39
"RERF-GC-1B (stomach, adherent)",0.982,> 10000,0.717,14
"SNU-1040 (large intestine, adherent)",0.959,> 10000,0.977,> 50
"HPAF-II (pancreas, adherent)",0.796,6410,0.707,14.5

Cell Line,AUC (Dabrafenib),IC50 (Dabrafenib) [nM],AUC (SN-38),IC50 (SN-38) [nM]
"MCF7 (breast, adherent)",0.925,> 10000,0.427,1.95
"NCI-H1915 (large cell lung carcinoma, adherent)",0.832,6580,0.775,20.2
"COR-L32 (small cell lung carcinoma, suspension)",0.961,> 10000,0.83,> 50
"MOLM-13 (acute myeloid leukaemia, suspension)",0.714,2400,0.481,2.78
"SW837 (large intestine, adherent)",0.98,> 10000,0.87,> 50
"MZ7-mel (melanoma, adherent)",0.234,102,0.701,11.8
"H2803 (mesothelioma, adherent)",0.971,> 10000,0.875,> 50
"JAR (urogenital system, adherent)",0.963,> 10000,0.829,30.3
"TE-10 (oesophagus, adherent)",0.973,> 10000,0.58,5.14
"A204 (rhabdomyosarcoma, adherent)",0.79,5950,0.471,2.55
"NUGC-3 (stomach, adherent)",0.929,> 10000,0.466,2.49
"CMK (acute myeloid leukaemia, suspension)",0.953,> 10000,0.705,10.6
"NB7 (neuroblastoma, adherent)",0.984,> 10000,0.985,> 50
"RT-112 (bladder, adherent)",0.945,> 10000,0.777,21.6
"TC-71 (Ewing sarcoma, adherent)",0.963,> 10000,0.431,2.1
"NCI-H2085 (lung adenocarcinoma, adherent)",0.971,> 10000,0.95,> 50
"MDA-MB-157 (breast, adherent)",0.978,> 10000,0.701,11.7
"RD (rhabdomyosarcoma, adherent)",0.918,> 10000,0.737,16.1
"SU-DHL-8 (B-cell lymphoma, suspension)",0.983,> 10000,0.821,26.3
"HeLa (cervix, adherent)",0.988,> 10000,0.611,6.22
"HO-1-N-1 (head and neck, adherent)",0.958,> 10000,0.325,1.07
"BFTC-909 (kidney, adherent)",0.976,> 10000,0.534,3.85
"ML-2 (acute myeloid leukaemia, suspension)",0.975,> 10000,0.513,3.38
"H2818 (mesothelioma, adherent)",0.921,> 10000,0.807,26.7

Cell Line,AUC (Dabrafenib),IC50 (Dabrafenib) [nM],AUC (SN-38),IC50 (SN-38) [nM]
"ChaGo-K-1 (non-small cell lung carcinoma, adherent)",0.973,> 10000,0.909,> 50
"NCI-H23 (lung adenocarcinoma, adherent)",0.951,> 10000,0.795,22.9
"NCI-H522 (lung adenocarcinoma, adherent)",0.955,> 10000,0.883,> 50
"U-2-OS (osteosarcoma, adherent)",0.979,> 10000,0.713,13.3
"KOSC-2 (head and neck, adherent)",0.866,9580,0.622,6.89
"LNCaP-Clone-FGC (prostate, adherent)",0.888,> 10000,0.734,16.2
"PC-3 (prostate, adherent)",0.981,> 10000,0.73,16.5
"HEL (acute myeloid leukaemia, semi-adherent)",0.958,> 10000,0.619,6.26
"MDA-MB-231 (breast, adherent)",0.933,> 10000,0.618,6.72
"BPH-1 (prostate, adherent)",0.96,> 10000,0.495,3.03
"COLO-792 (melanoma, adherent)",0.982,> 10000,0.903,> 50
"BEN (non-small cell lung carcinoma, adherent)",0.985,> 10000,0.912,> 50
"A673 (rhabdomyosarcoma, adherent)",0.755,3080,0.27,0.755
"HT-144 (melanoma, adherent)",0.232,93.3,0.751,18.1
"NCI-H1355 (lung adenocarcinoma, adherent)",0.957,> 10000,0.897,> 50
"LOXIMVI (melanoma, semi-adherent)",0.098,< 39.1,0.439,2.18
"GP5d (large intestine, adherent)",0.99,> 10000,0.886,45.3
"H2591 (mesothelioma, adherent)",0.906,> 10000,0.685,12.2
"TGBC24TKB (biliary tract, adherent)",0.989,> 10000,0.915,> 50
"SW1463 (large intestine, adherent)",0.946,> 10000,0.873,> 50
"A549 (lung adenocarcinoma, adherent)",0.841,8240,0.523,3.64
"786-0 (kidney, adherent)",0.957,> 10000,0.532,3.79
"MDA-MB-468 (breast, adherent)",0.977,> 10000,0.478,2.73
"SKM-1 (haematopoietic neoplasm, suspension)",0.88,> 10000,0.607,6.35

Cell Line,AUC (Dabrafenib),IC50 (Dabrafenib) [nM],AUC (SN-38),IC50 (SN-38) [nM]
"HCT-116 (large intestine, adherent)",0.777,3810,0.581,5.14
"HCC1806 (breast, adherent)",0.963,> 10000,0.421,1.94
"NCI-H2066 (small cell lung carcinoma, adherent)",0.972,> 10000,0.968,> 50
"NCI-H2170 (lung squamous cell carcinoma, adherent)",0.984,> 10000,0.731,14.7
"MKN1 (stomach, adherent)",0.966,> 10000,0.819,30.3
"COLO-829 (melanoma, adherent)",0.281,109,0.914,> 50
"SNU-398 (liver, adherent)",0.967,> 10000,0.757,17.9
"SK-LU-1 (lung adenocarcinoma, adherent)",0.882,> 10000,0.601,6.38
"RS4-11 (leukaemia, suspension)",0.96,> 10000,0.49,2.95
"PL18 (pancreas, adherent)",0.821,5760,,
"BT-549 (breast, adherent)",0.956,> 10000,0.758,24.1
"CAL-54 (kidney, adherent)",0.963,> 10000,0.587,5.61
"PCI-38 (head and neck, adherent)",0.965,> 10000,0.813,27.1
"MOLT-4 (lymphoblastic leukaemia, suspension)",0.855,5730,0.288,0.902
"769-P (kidney, adherent)",0.862,9830,0.79,24.5
"LU-99A (large cell lung carcinoma, adherent)",0.961,> 10000,0.342,1.15
"H2804 (mesothelioma, adherent)",0.983,> 10000,,
"CCRF-CEM (lymphoblastic leukaemia, suspension)",0.899,9050,0.363,1.4
"SW872 (soft tissue, adherent)",0.2,90.8,0.571,4.8
"SCC-15 (head and neck, adherent)",0.882,> 10000,0.644,9
"NCI-H1573 (lung adenocarcinoma, adherent)",0.935,> 10000,0.99,> 50
"NCI-H2030 (lung adenocarcinoma, adherent)",0.928,> 10000,0.724,14.9
"OVCAR-3 (ovary, adherent)",0.983,> 10000,0.612,6.56
"KG-1 (acute myeloid leukaemia, suspension)",0.823,5070,,
